The other results are listed elsewhere or left out. At the low end of the ranking the order means little. The protein was read in a cell extract, so binding may be indirect.
Biological target: T1, HNF4alpha8 (COS-7 nuclear extract) (UniProt P41235-5)
T1 sequence: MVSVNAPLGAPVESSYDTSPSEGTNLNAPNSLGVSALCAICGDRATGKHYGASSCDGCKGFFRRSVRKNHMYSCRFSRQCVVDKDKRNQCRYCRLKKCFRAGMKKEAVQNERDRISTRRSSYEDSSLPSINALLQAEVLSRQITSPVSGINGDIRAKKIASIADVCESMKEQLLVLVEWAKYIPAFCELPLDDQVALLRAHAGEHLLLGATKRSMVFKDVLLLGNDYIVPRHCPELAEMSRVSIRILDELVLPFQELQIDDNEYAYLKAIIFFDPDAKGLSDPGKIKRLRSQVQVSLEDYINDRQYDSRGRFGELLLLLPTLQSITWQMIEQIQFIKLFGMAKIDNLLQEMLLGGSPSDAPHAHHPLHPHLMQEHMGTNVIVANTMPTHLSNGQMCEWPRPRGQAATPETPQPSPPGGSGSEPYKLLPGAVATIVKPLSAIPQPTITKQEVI
Assay: protein-binding microarray
Details: COS-7 nuclear extract on double-stranded Agilent 4x180k PBM; binding buffer, salt, pH and temperature not given; high values mean tight binding; double strand, one strand shown; sequences stand for … in …GCCTAGGGAGATTAGAGTATCGGTCGA

| Sequence | binding signal (log2 normalized intensity) |
| --- | --- |
| GCTGTGTGAAGTGACTTGCCCTGTTCACAT | 2.25 |
| GGCTCAACGGGTTAGACGCACGGCAGAGCA | -1.26 |
| GAATTCTTGTCCAACTCCCCTCCCAAGGCA | 4.44 |
| AAGCAAGCTCTGCAATAGAGCCACATTCTG | -1.31 |
| GACAAAGGCTTTGAGTCAACACACCTGTGG | -1.24 |
| TTCAGCCGCTTTGAGGTCAATGGTAGAAAA | 1.85 |
| AAGATAAAAATCAGAGATCAAGATACAGGT | -1.16 |
| CATCTGAACTCTTCATGGACTCCTCTTATC | 2.06 |
| AAGAGGAAAAAGTGGCTTTTTAGGAAACAT | -1.22 |
| TGTTAGAATGTATTGAGAAGAAACCTTTGC | 2.48 |
| CCTATACAGACCTTTGTATATTCCCTTTGT | 2.06 |
| GTCACTGCTCAAAAACACTCAGTTAATTAT | -0.0424 |
| CAGGGTTCATAGATGATAGTGATAAGGATC | 1.15 |
| CTTGAGGCTGTCTGCTATGCAGAGCTCTTT | -1.18 |
| GTGAGCTGTCTAATTTTGCACAGCCAGCCT | -1.52 |
| TACATGAGTGATCCTGAAAACAAATAGAGC | -1.27 |
| CGCATCTTTTATAAGGGGCAGCAAACCTAC | -1.4 |
| TGTCCGTTCCTGCCTGGAGCCACTGAAGTG | -1.26 |
| TGCTCCCTGCCCCTACCCCCACCCTGTGTT | 5.58 |
| TCCAGAGATGCCAGGAGAGCCGAAGCAGTC | -1.19 |

| Sequence | binding signal (log2 normalized intensity) |
| --- | --- |
| CAAAGGGCATCAGCCCCAATGGCTAAGGTC | 1.89 |
| CACCAAAAATCACTTGGATAGCGCGTGGCC | -0.707 |
| CCCAGGGAGAAAGGTCAGGGGCAGGGTCGC | 2.28 |
| CAAGGTCCAGGAGGTCGCTGGAAAGGCGGC | 0.399 |
| AGTCCATTCCTTGGACTCTGCCACTGGTTT | 3.48 |
| AGGAGGAGACAGACTTATCGGGTAGGCAAG | -1.3 |
| CTGCTTTTGGAATTTGACCTCATTTGCTCC | 6.52 |
| AGCTTTGATAGTCTGCTACCATCAGATAAG | -1.29 |
| CTGAGCCAGCACTTCGACCTCACATTGTAG | 1.99 |
| TTTGCCTCATTCTTATTGCCTCATGTTTGC | 1.9 |
| TCATTACTGACAGAGATCAAAAACCAAAGC | -1.34 |
| CTTTAGCATATTACACCTGTAGCTTCCGAA | -1.25 |
| CTGGAATCACGTTCGCCTAATTTGAAGCAT | -1.1 |
| CTATCTTATCTGGGCCAGGTATTTGGACTT | 4.76 |
| TAGAACAAAGATCAAAGCAGTATCATCAAC | -1.24 |
| CCTCTGAAAGCACTTGTAGGCCTGTGTGCA | -0.43 |
| TTTCAGATGGACCAAAGGTCTTGTACAAAG | 2.74 |
| TTCCTCCTGGCCTCTCTGAGCAGCCTTCCC | -1.34 |
| TTCCATAGATAAGAGCTGAGGAAGTGCTGA | -1.25 |
| CCACCAAGGACTGGACCACCTCCTCAAAGA | -1.32 |

Source: article PMC10726135
